# Experimental data: PubChem BioAssay AID324 (DTP/NCI, 2004)
# Toxic doses and inconclusive results are not listed. Certain results were filed several times, with different values. This is not the full list of results. There may be further records. Values that stand side by side are repeats in other runs, samples, wells, individuals or studies.
# Tested on: CD2F1 mice, AMSA-resistant P388 leukemia ip, median survival T/C
# Assay: NCI In Vivo Anticancer Drug Screen. Data for tumor model P388 Leukemia resistant to AMSA; NSC 249992 (intraperitoneal) in CD2F1 (CDF1) mice
# Settings: endpoint: median survival time, schedule: Q04DX002 (ip), vehicle: water, higher = longer survival
# Protocol: The antitumor activity of compounds was measured in mice bearing transplantable tumors. Survival or tumor size were measured and the results are expressed as the measurement made in the treated group (T) divided by the measurement made in the vehicle treated control group (C). The tumor model used in this assay is P388 Leukemia resistant to AMSA; NSC 249992 (intraperitoneal) in CD2F1 (CDF1) mice
compound,measurement,setting,value
O=C1c2c(O)ccc(O)c2C(=O)c2c(NCCNCCO)ccc(NCCNCCO)c21,T/C,dose: 2.16 mg/kg/injection,118 % of control and 156 % of control
same,T/C,dose: 3.6 mg/kg/injection,111 % of control and 155 % of control
